Results taken from patent publication US20240381870A1 (priority 2024, published 2024).

Test system: wheat stem base rot disease
Settings: in words
Protocol: Wheat stem base rot disease control experiments were conducted in 2020 and 2021. The experiments were conducted using the following formulations: 12% cyclobutrifluram·prochloraz suspension seed coating in example 4 of formulation implementation, 20% cyclobutrifluram suspension seed coating, 20% prochloraz suspension seed coating, and 15% carbendazim·fipronil suspension seed coating. The experimental site was located in Liuhu Farm, Suixi County. The wheat variety is “Quanmai 725”. The dosage of the preparation was 1:400 by weight to the seeds for seed coating, and the drug was diluted into a drug solution. The final dosage of drug solution and the dosage of seeds was 1 liter of drug solution to coat 100 kg wheat seeds, and then sow directly after shade drying. The disease investigation was conducted after jointing and booting (Table 5).

Compound	control effect on wheat stem base rot disease
O=C(NC1CCC1c1ccc(Cl)cc1Cl)c1cccnc1C(F)(F)F (centres unmarked) [Cyclobutrifluram(C), Cyclobutrifluram]	significant control effect
CCCN(CCOc1c(Cl)cc(Cl)cc1Cl)C(=O)n1ccnc1 [Prochloraz(P), Prochloraz]	significant control effect
